From the supplement of paper PMC10126150
Sequences with one replicate were seen in a single cluster, so their values are uncertain.
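Further: ATP exposure 15 min at 22 °C before imaging.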

Each sequence was assayed on ATP (assay: switch fluorescence ratio, 500 uM ATP over buffer (Cy3 cluster intensity, sum of 5 cycles each) (fold (ratio)); higher = stronger signal-on switching upon ATP binding; sequences stand for … in TCGTCGGCAGCGTCAGATGTGTATAAGAGACAGTTTTTTTTTTTTTTTTTTTTTTTTT…TC). Details: aptamer strand: ATP DNA aptamer (quencher-CACCTGGGGGAGTATTGCGGAGGAAGG + anchor), 100 nM annealed; ATP concentration: 500 uM; one replicate.
Outline: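 After annealing to 100 nM quencher-labelled ATP aptamer, Cy3-labelled switching-strand clusters on a modified Illumina MiSeq flow-cell were imaged in selection buffer. A second image followed after 15 min with 500 uM ATP at 22 °C, and five such buffer/ATP cycles were done, each separated by NaOH stripping and re-annealing. The fluorescence ratio, averaged per switch-domain sequence, is summed target-cycle over summed buffer-cycle Cy3 intensity per cluster, with clusters outside 100-1000 RFU excluded.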
TGGGCAGGTC was tested, and the switch fluorescence ratio was 0.97. TGGGCCCATA was tested, and the switch fluorescence ratio was 1.05. Sequence TGGGCCCCAA has a switch fluorescence ratio of 1.04. Work on TGGGCGAGTT yielded a switch fluorescence ratio of 0.98. For TGGGCGGCAT, the switch fluorescence ratio was 1.01. In the case of TGGGCGTA, the switch fluorescence ratio was 0.99. TGGGCTAAT showed a switch fluorescence ratio of 1.04. For TGGGCTGATG, the switch fluorescence ratio was 0.955. Work on TGGGGAATGA yielded a switch fluorescence ratio of 0.962. TGGGGACCAG gave a switch fluorescence ratio of 0.988. In the case of TGGGGAGAG, the switch fluorescence ratio was 0.99. TGGGGAGG showed a switch fluorescence ratio of 0.978. TGGGGAGGC gave a switch fluorescence ratio of 1.06. TGGGGCAAAA gave a switch fluorescence ratio of 0.993. With TGGGGCCATA the switch fluorescence ratio was 0.998. Work on TGGGGCCCCC yielded a switch fluorescence ratio of 0.992. Sequence TGGGGTAACG has a switch fluorescence ratio of 0.974. With TGGGGTAACT the switch fluorescence ratio was 0.977. With TGGGGTCGTT the switch fluorescence ratio was 0.968. TGGGTACTCG was tested, and the switch fluorescence ratio was 1.01. With TGGGTAGAG the switch fluorescence ratio was 1. In the case of TGGGTAGGG, the switch fluorescence ratio was 0.97. TGGGTAGGGC gave a switch fluorescence ratio of 0.979. For TGGGTCGTCT, the switch fluorescence ratio was 1.05. In the case of TGGGTCTGGG, the switch fluorescence ratio was 0.99. TGGGTGAGTG gave a switch fluorescence ratio of 0.929. Work on TGGGTGGATT yielded a switch fluorescence ratio of 0.994. For TGGGTGGCTG, the switch fluorescence ratio was 1.16. With TGGTACGCCT the switch fluorescence ratio was 1. TGGTAGCTTT showed a switch fluorescence ratio of 0.984. With TGGTATTCGG the switch fluorescence ratio was 0.985. With TGGTATTGAC the switch fluorescence ratio was 1.05. TGGTATTTG gave a switch fluorescence ratio of 1.03. TGGTCAAAAG was tested, and the switch fluorescence ratio was 0.993. With TGGTCAATGG the switch fluorescence ratio was 1.08. TGGTCATTCC showed a switch fluorescence ratio of 1.14. With TGGTCCACCT the switch fluorescence ratio was 1.07. In the case of TGGTCCCATT, the switch fluorescence ratio was 1.04. For TGGTCCGGCA, the switch fluorescence ratio was 0.991. For TGGTCGGGCA, the switch fluorescence ratio was 1. Sequence TGGTCTCGCT has a switch fluorescence ratio of 1.01. TGGTCTCTGT was tested, and the switch fluorescence ratio was 0.963. For TGGTCTGCAG, the switch fluorescence ratio was 1.01. Work on TGGTCTTGGT yielded a switch fluorescence ratio of 0.98. Work on TGGTGACCCT yielded a switch fluorescence ratio of 0.995. With TGGTGAGGCA the switch fluorescence ratio was 1.02. For TGGTGCAGAC, the switch fluorescence ratio was 1.13. Sequence TGGTGCCTCC has a switch fluorescence ratio of 1.08. Sequence TGGTGGCCC has a switch fluorescence ratio of 0.987. TGGTGGCGA gave a switch fluorescence ratio of 0.993. TGGTGGGTAA showed a switch fluorescence ratio of 1. TGGTGGTATT gave a switch fluorescence ratio of 0.989. TGGTGGTCAA was tested, and the switch fluorescence ratio was 1.01. In the case of TGGTGTAAG, the switch fluorescence ratio was 1. In the case of TGGTGTATAA, the switch fluorescence ratio was 1.03. TGGTGTGAGG was tested, and the switch fluorescence ratio was 0.963. TGGTGTTTCT showed a switch fluorescence ratio of 0.974. With TGGTTAGCTG the switch fluorescence ratio was 1.06. For TGGTTAGTCT, the switch fluorescence ratio was 0.965. With TGGTTCCATC the switch fluorescence ratio was 0.992. In the case of TGGTTCCGAG, the switch fluorescence ratio was 1.07. TGGTTCGCCG showed a switch fluorescence ratio of 1.01. With TGGTTCTGAG the switch fluorescence ratio was 1. Sequence TGGTTCTTTG has a switch fluorescence ratio of 0.993. TGGTTGCTGG showed a switch fluorescence ratio of 0.972. With TGGTTGGTAG the switch fluorescence ratio was 1.03. Work on TGGTTGTGTT yielded a switch fluorescence ratio of 0.985. For TGGTTTGACT, the switch fluorescence ratio was 0.958. TGGTTTTAAA was tested, and the switch fluorescence ratio was 0.985. TGTAAATTCG was tested, and the switch fluorescence ratio was 1.02. With TGTAACAGT the switch fluorescence ratio was 1.06. Work on TGTAATACCA yielded a switch fluorescence ratio of 1.06. In the case of TGTAATGCTA, the switch fluorescence ratio was 0.999. Sequence TGTACAGGG has a switch fluorescence ratio of 1.01. TGTACATATT gave a switch fluorescence ratio of 1.02. Sequence TGTACTAACG has a switch fluorescence ratio of 1.39. Work on TGTACTATAG yielded a switch fluorescence ratio of 1. TGTACTTTA was tested, and the switch fluorescence ratio was 1.04. Work on TGTAGATTTG yielded a switch fluorescence ratio of 1.03. Sequence TGTAGCGA has a switch fluorescence ratio of 1.84. In the case of TGTAGCTCGA, the switch fluorescence ratio was 0.995. With TGTAGCTGT the switch fluorescence ratio was 1.01. In the case of TGTAGGTGGA, the switch fluorescence ratio was 0.964. For TGTAGTGTCC, the switch fluorescence ratio was 1.02. With TGTAGTTCAG the switch fluorescence ratio was 1.02. Sequence TGTATACTGG has a switch fluorescence ratio of 0.975. TGTATCAAGG showed a switch fluorescence ratio of 0.978. TGTATCGGGA gave a switch fluorescence ratio of 0.991. In the case of TGTATCTGGA, the switch fluorescence ratio was 1.04. For TGTATGAAAG, the switch fluorescence ratio was 0.955. Work on TGTATTAATT yielded a switch fluorescence ratio of 1.03. Sequence TGTATTGATA has a switch fluorescence ratio of 1.02. For TGTATTGCCA, the switch fluorescence ratio was 0.975. Work on TGTATTGTGA yielded a switch fluorescence ratio of 0.996. TGTATTTATA gave a switch fluorescence ratio of 1.02. With TGTCAAAAAA the switch fluorescence ratio was 0.995. TGTCACAGAT showed a switch fluorescence ratio of 1.01. TGTCACATCA gave a switch fluorescence ratio of 1.04. Sequence TGTCACCCCG has a switch fluorescence ratio of 1. TGTCAGAGGA gave a switch fluorescence ratio of 1.05.
